# Laboratory results as given in the supplement of paper PMC8728848.
# The other results are listed elsewhere or left out.
# How the values were obtained:
# Experiment in all cases: glycan array binding signal (z-score within array); higher = stronger binding
# Conditions in all cases: glycan notation: IUPAC condensed, linker removed
# [1] = target: Fuc(a1-2)Gal6S(b1-3)GlcNAc6S
# Summary of the method: (§1)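 Glycan array data were curated from 3228 arrays in the Consortium for Functional Glycomics database and kept only where the protein sequence was available. Glycan names were converted to IUPAC-condensed notation, and columns mapping to the same glycan were averaged. The binding signal is a within-array Z-score, averaged across arrays of the same protein sequence at different concentrations or buffers and across linkers. Negative Z-scores can be read as non-binding.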
# Fuc(a1-2)Gal6S(b1-4)Glc = target: Fuc(a1-2)Gal6S(b1-4)Glc
# Summary of the method: as §1
# [2] = target: Fuc(a1-2)Gal6S(b1-4)Glc6S
# Summary of the method: as §1
# [3] = target: Fuc(a1-2)Gal6S(b1-4)GlcNAc
# Summary of the method: as §1
# Fuc(a1-2)[Gal(a1-3)]Gal = target: Fuc(a1-2)[Gal(a1-3)]Gal
# Summary of the method: as §1
# [4] = target: Fuc(a1-2)[Gal(a1-3)]Gal(b1-3)GalNAc
# Summary of the method: as §1
# [5] = target: Fuc(a1-2)[Gal(a1-3)]Gal(b1-3)GlcNAc
# Summary of the method: as §1
# [6] = target: Fuc(a1-2)[Gal(a1-3)]Gal(b1-3)GlcNAc(b1-2)Man(a1-3)[Fuc(a1-2)[Gal(a1-3)]Gal(b1-3)GlcNAc(b1-2)Man(a1-6)]Man(b1-4)GlcNAc(b1-4)GlcNAc
# Summary of the method: as §1
# [7] = target: Fuc(a1-2)[Gal(a1-3)]Gal(b1-3)GlcNAc(b1-2)Man(a1-3)[Fuc(a1-2)[Gal(a1-3)]Gal(b1-3)GlcNAc(b1-2)Man(a1-6)]Man(b1-4)GlcNAc(b1-4)[Fuc(a1-6)]GlcNAc
# Summary of the method: as §1
# [8] = target: Fuc(a1-2)[Gal(a1-3)]Gal(b1-3)GlcNAc(b1-3)GalNAc
# Summary of the method: as §1
# [9] = target: Fuc(a1-2)[Gal(a1-3)]Gal(b1-4)Glc
# Summary of the method: as §1
# [10] = target: Fuc(a1-2)[Gal(a1-3)]Gal(b1-4)GlcNAc
# Summary of the method: as §1
# [11] = target: Fuc(a1-2)[Gal(a1-3)]Gal(b1-4)GlcNAc(b1-2)Man(a1-3)[Fuc(a1-2)[Gal(a1-3)]Gal(b1-4)GlcNAc(b1-2)Man(a1-6)]Man(b1-4)GlcNAc(b1-4)GlcNAc
# Summary of the method: as §1
# [12] = target: Fuc(a1-2)[Gal(a1-3)]Gal(b1-4)GlcNAc(b1-2)Man(a1-3)[Fuc(a1-2)[Gal(a1-3)]Gal(b1-4)GlcNAc(b1-2)Man(a1-6)]Man(b1-4)GlcNAc(b1-4)[Fuc(a1-6)]GlcNAc
# Summary of the method: as §1
# [13] = target: Fuc(a1-2)[Gal(a1-3)]Gal(b1-4)GlcNAc(b1-3)GalNAc
# Summary of the method: as §1
# [14] = target: Fuc(a1-2)[Gal(a1-3)]Gal(b1-4)GlcNAc(b1-6)GalNAc
# Summary of the method: as §1
# [15] = target: Fuc(a1-2)[Gal(a1-3)]Gal(b1-4)[Fuc(a1-3)]Glc
# Summary of the method: as §1
# [16] = target: Fuc(a1-2)[Gal(a1-3)]Gal(b1-4)[Fuc(a1-3)]GlcNAc
# Summary of the method: as §1
# [17] = target: Fuc(a1-2)[Gal(a1-3)]Gal(b1-4)[Fuc(a1-3)]GlcNAc(b1-3)GalNAc
# Summary of the method: as §1
# [18] = target: Fuc(a1-2)[Gal(a1-4)]Gal(b1-4)GlcNAc
# Summary of the method: as §1
# [19] = target: Fuc(a1-2)[GalNAc(a1-3)]Gal
# Summary of the method: as §1
# [20] = target: Fuc(a1-2)[GalNAc(a1-3)]Gal(b1-3)GalNAc(a1-3)[Fuc(a1-2)]Gal(b1-4)GlcNAc
# Summary of the method: as §1
# [21] = target: Fuc(a1-2)[GalNAc(a1-3)]Gal(b1-3)GlcNAc
# Summary of the method: as §1
# [22] = target: Fuc(a1-2)[GalNAc(a1-3)]Gal(b1-3)GlcNAc(b1-2)Man(a1-3)[Fuc(a1-2)[GalNAc(a1-3)]Gal(b1-3)GlcNAc(b1-2)Man(a1-6)]Man(b1-4)GlcNAc(b1-4)GlcNAc
# Summary of the method: as §1
# [23] = target: Fuc(a1-2)[GalNAc(a1-3)]Gal(b1-3)GlcNAc(b1-2)Man(a1-3)[Fuc(a1-2)[GalNAc(a1-3)]Gal(b1-3)GlcNAc(b1-2)Man(a1-6)]Man(b1-4)GlcNAc(b1-4)[Fuc(a1-6)]GlcNAc
# Summary of the method: as §1
# [24] = target: Fuc(a1-2)[GalNAc(a1-3)]Gal(b1-3)GlcNAc(b1-3)GalNAc
# Summary of the method: as §1
# [25] = target: Fuc(a1-2)[GalNAc(a1-3)]Gal(b1-3)GlcNAc(b1-6)GalNAc
# Summary of the method: as §1
# [26] = target: Fuc(a1-2)[GalNAc(a1-3)]Gal(b1-4)Glc
# Summary of the method: as §1
# [27] = target: Fuc(a1-2)[GalNAc(a1-3)]Gal(b1-4)GlcNAc
# Summary of the method: as §1
# [28] = target: Fuc(a1-2)[GalNAc(a1-3)]Gal(b1-4)GlcNAc(b1-2)Man(a1-3)[Fuc(a1-2)[GalNAc(a1-3)]Gal(b1-4)GlcNAc(b1-2)Man(a1-6)]Man(b1-4)GlcNAc(b1-4)GlcNAc
# Summary of the method: as §1
# [29] = target: Fuc(a1-2)[GalNAc(a1-3)]Gal(b1-4)GlcNAc(b1-2)Man(a1-3)[Fuc(a1-2)[GalNAc(a1-3)]Gal(b1-4)GlcNAc(b1-2)Man(a1-6)]Man(b1-4)GlcNAc(b1-4)[Fuc(a1-6)]GlcNAc
# Summary of the method: as §1
# [30] = target: Fuc(a1-2)[GalNAc(a1-3)]Gal(b1-4)GlcNAc(b1-2)Man(a1-3)[GalNAc(a1-3)[Fuc(a1-2)]Gal(b1-4)GlcNAc(b1-2)Man(a1-6)]Man(b1-4)GlcNAc(b1-4)GlcNAc
# Summary of the method: as §1
# [31] = target: Fuc(a1-2)[GalNAc(a1-3)]Gal(b1-4)GlcNAc(b1-3)Gal(b1-4)GlcNAc
# Summary of the method: as §1
# [32] = target: Fuc(a1-2)[GalNAc(a1-3)]Gal(b1-4)GlcNAc(b1-3)Gal(b1-4)GlcNAc(b1-3)Gal(b1-4)GlcNAc
# Summary of the method: as §1
# [33] = target: Fuc(a1-2)[GalNAc(a1-3)]Gal(b1-4)GlcNAc(b1-3)GalNAc
# Summary of the method: as §1
# [34] = target: Fuc(a1-2)[GalNAc(a1-3)]Gal(b1-4)[Fuc(a1-3)]GlcNAc
# Summary of the method: as §1
# [35] = target: Fuc(a1-2)[GalNAc(a1-3)]Gal(b1-4)[Fuc(a1-3)]GlcNAc(b1-3)GalNAc
# Summary of the method: as §1
# [36] = target: Fuc(a1-2)[GalNAc(a1-4)]Gal(b1-4)GlcNAc
# Summary of the method: as §1
# [37] = target: Fuc(a1-2)[GalNAc(b1-3)]Gal
# Summary of the method: as §1
# Fuc(a1-3)GlcNAc = target: Fuc(a1-3)GlcNAc
# Summary of the method: as §1
# [38] = target: Fuc(a1-3)[Gal(b1-4)]Glc6S
# Summary of the method: as §1
# [39] = target: Fuc(a1-3)[Gal(b1-4)]GlcNAc
# Summary of the method: as §1
# [40] = target: Fuc(a1-3)[Gal(b1-4)]GlcNAc(b1-2)Man
# Summary of the method: as §1
# [41] = target: Fuc(a1-3)[Gal(b1-4)]GlcNAc(b1-2)Man(a1-3)[Fuc(a1-3)[Gal(b1-4)]GlcNAc(b1-2)Man(a1-6)]Man(b1-4)GlcNAc(b1-4)GlcNAc
# Summary of the method: as §1
# [42] = target: Fuc(a1-3)[Gal(b1-4)]GlcNAc(b1-2)Man(a1-3)[Fuc(a1-3)[Gal(b1-4)]GlcNAc(b1-2)Man(a1-6)]Man(b1-4)GlcNAc(b1-4)[Fuc(a1-6)]GlcNAc
# Summary of the method: as §1
binder,measurement,setting,value
"Calsepa (Calystegia sepium), P93114 (protein) MAVPMDTISGPWGNNGGNFWSFRPVNKINQIVISYGGGGNNPIALTFSSTKADGSKDTITVGGGGPDSITGTEMVNIGTDEYLTGISGTFGIYLDNNVLRSITFTTNLKAHGPYGQKVGTPFSSANVVGNEIVGFLGRSGYYVDAIGTYNRHK",glycan array binding signal (z-score),[1],-0.26
same,glycan array binding signal (z-score),Fuc(a1-2)Gal6S(b1-4)Glc,-0.253
same,glycan array binding signal (z-score),[2],-0.244
same,glycan array binding signal (z-score),[3],-0.241
same,glycan array binding signal (z-score),Fuc(a1-2)[Gal(a1-3)]Gal,-0.247
same,glycan array binding signal (z-score),[4],-0.272
same,glycan array binding signal (z-score),[5],-0.259
same,glycan array binding signal (z-score),[6],-0.227
same,glycan array binding signal (z-score),[7],-0.269
same,glycan array binding signal (z-score),[8],-0.27
same,glycan array binding signal (z-score),[9],-0.256
same,glycan array binding signal (z-score),[10],-0.249
same,glycan array binding signal (z-score),[11],0.713
same,glycan array binding signal (z-score),[12],-0.244
same,glycan array binding signal (z-score),[13],-0.269
same,glycan array binding signal (z-score),[14],-0.273
same,glycan array binding signal (z-score),[15],-0.271
same,glycan array binding signal (z-score),[16],-0.258
same,glycan array binding signal (z-score),[17],-0.274
same,glycan array binding signal (z-score),[18],-0.251
same,glycan array binding signal (z-score),[19],-0.245
same,glycan array binding signal (z-score),[20],-0.271
same,glycan array binding signal (z-score),[21],-0.225
same,glycan array binding signal (z-score),[22],-0.222
same,glycan array binding signal (z-score),[23],-0.272
same,glycan array binding signal (z-score),[24],-0.27
same,glycan array binding signal (z-score),[25],-0.269
same,glycan array binding signal (z-score),[26],-0.252
same,glycan array binding signal (z-score),[27],-0.243
same,glycan array binding signal (z-score),[28],0.343
same,glycan array binding signal (z-score),[29],-0.263
same,glycan array binding signal (z-score),[30],-0.053
same,glycan array binding signal (z-score),[31],-0.252
same,glycan array binding signal (z-score),[32],-0.246
same,glycan array binding signal (z-score),[33],-0.272
same,glycan array binding signal (z-score),[34],-0.246
same,glycan array binding signal (z-score),[35],-0.267
same,glycan array binding signal (z-score),[36],-0.247
same,glycan array binding signal (z-score),[37],-0.247
same,glycan array binding signal (z-score),Fuc(a1-3)GlcNAc,-0.24
same,glycan array binding signal (z-score),[38],-0.244
same,glycan array binding signal (z-score),[39],-0.246
same,glycan array binding signal (z-score),[40],-0.262
same,glycan array binding signal (z-score),[41],-0.082
same,glycan array binding signal (z-score),[42],-0.272
